Data as given in the supplement of paper PMC12632987.
Whole data set: some 4,500 sequences, median “median log2 fold change of GCK-ALFA target abundance (FLAG IP / Myc IP barcode read proportion)” near 0.078, cut for the lowest 2% near -0.6. The list shows a part of the results.

B1: GBRAP_125_2982 (protein)
chain: PTEQELEDLRRFARALGLDEEEAEEAAELARAHSLRGTVYAILAALGEEEAADLVEKLTEEEVARVLRRVAAYLEAHPDATPEEVVALFRELAEEELAKR
B2: GBRAP_128_3542 (protein)
chain: SLEEARERAEKVMEEIKNSTVEEAAEITRAFLEELKTWSDEEVEAAVDVVIEKLPELTAEKLEAVADTIREQRPKFSPEKQNLLADVEVEALNEALEKEE
B3: GBRAP_125_3048 (protein)
chain: SMEEAIEALAAIARLLGYSEEEVEEIKELARRHGVKQTLIAIALAEGEEELADLAAKLTDEEIEEVLKKLLAWLKAHPDATAEEVLAKLKELLEEALAKK
B4: GBRAP_150_3932 (protein)
chain: SLEELEILTDTLLDLIEVIPELGLPMAEHAAKVAKAAEDEAKEIDPELAELAAKALKALEELIKAMKAGAKQEELDKLIEKALEYAKKLLEKVEELKKKA
B5: GBRAP_83_6943 (protein)
chain: KEKVTVAAPGDRVEEAVEIAFDLQEEEGLEVVLEVLFTSEERERVLAALEAAIDRGFEGEIHLYSLDRDEAGLEAAVAALRARAAAAGRDVTVTGHVNEE
B6: GBRAP_166_4950 (protein)
chain: SLEEIKKELTELIERLAEKMKTANAEEQLELYAEIAEELAKAKEAGLSDEDLLALATRALELTKEAGGSVEQLLGVIEMFVDLTEEERDRLAAAAEAVLA
B7: GBRAP_160_4560 (protein)
chain: MERAEELVRETREDVERTLEETKNDSVENIRTAVVVTLGEHALEAAEDPRYSDEMVDAILDAGDRIAATLAELKNASYEERRAAVLAIVDEMGERILAIA
B8: GBRAP_52_5982 (protein)
chain: MRERMRRLAEELVRLVLEGREEEARELMERAARELSEEELEMIAEELAELAKTATPEEQDAILRAAEMMEDVWLKAGFDEALADDGLARVAAAVYDALQR

Molecular target: GABARAP, O95166
Sequence (O95166 whole entry, the tested form may be a part): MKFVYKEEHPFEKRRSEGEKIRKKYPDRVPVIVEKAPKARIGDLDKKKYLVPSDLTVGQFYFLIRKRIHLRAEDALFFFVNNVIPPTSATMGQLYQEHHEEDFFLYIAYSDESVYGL
Assay: median log2 fold change of GCK-ALFA target abundance (FLAG IP / Myc IP barcode read proportion) (log2 ratio); each designed protein is fused to an ALFA-tag nanobody in HEK293 cells to bring the named protein to FLAG-tagged glucokinase (GCK); Myc marks an untargeted standard; higher = target protein stabilised (more abundant)
Conditions: target protein: 3xFLAG-MCP-GCK-ALFA reporter; HEK293 landing pad (RPLP)
Summary of the method: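 The readout is target abundance, the per-binder median log2 ratio of FLAG to Myc barcode read proportions. It came from HEK293 landing-pad cells carrying a recombined ALFA-nanobody-fused binder library, induced with 2 μg mL^−1 doxycycline and transfected with a plasmid for a FLAG-tagged target and a Myc-tagged standard. After 48 h, lysates were immunoprecipitated with anti-FLAG and anti-Myc, and circular RNA barcodes were reverse transcribed, amplified and sequenced. Each barcode needed a proportion of at least 10^−7 in both replicates and each binder at least 3 barcodes per replicate, a pseudocount of 10^−6 was added, and the replicates were pooled.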

Binder | median log2 fold change
B1 | -0.551
B2 | -0.126
B3 | -0.167
B4 | 0.239
B5 | 0.0825
B6 | 0.212
B7 | -0.223
B8 | -0.0134
